In WO2009089998A1 (dated 2009):

Target: T1, recombinant domain A2 of human tenascin-C (human, UniProt P24821 1161-1255, biotinylated (EZ-link sulfo-NHS-SS-biotin) for ELISA and BIAcore)
T1 construct: Expressed in E. coli TG-1 from pQE12 and purified on Ni-NTA; also called A2 domain; recombinant antigen A2; not shown: C-terminal His-tag and residues from the pQE12 vector
T1 sequence: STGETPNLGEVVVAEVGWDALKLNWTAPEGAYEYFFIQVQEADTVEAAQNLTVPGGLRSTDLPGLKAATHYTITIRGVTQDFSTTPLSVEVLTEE
Assay: SPR (BIAcore 3000), biotinylated A2 domain on streptavidin chip, monomeric scFv injected

B1: scFv C12 (scFv)
scFv: [sequence of about 100 residues omitted]QARRSFDYWGQGTLVTVSSGGGGSGGGGSGGGGSSELTQDPAVSVALGQTVRITCQGDSLRSYYASWYQQKPGQAPVLVIYGKNNRPSGIPDRFSGSSSGNTASLTITGAQAEDEADYYCNSSGISMSPVVFGGGTKLTVLGAAAEQKLISEEDLNGAA
notes: Human scFv from the ETH2-Gold library, with DP47 heavy chain and DPL16 light chain; It was purified on protein A and injected as monomer in BIAcore; also called C12 antibody; anti-A2 antibody C12
Binder B1 has a Kd of ~1180 nM.
